Results: patent US12551573B2, “Compositions and methods for the targeting of PCSK9” (Scribe Therapeutics Inc., priority 2022, dated 2026)

B1: DOMAIN_20398 (protein, listed as Physeter macrocephalus)
chain: SQESVSFEDVAVYFTQNQWASLDSAQRTLYRKVMLENYANVTSLAAFPFPKPDLILQLEQGEAPGGLDPWTPIRREVRGVC
B2: DOMAIN_20359 (protein, listed as Pteropus vampyrus)
chain: SKASVTFADLAVYFSQEEWEGLSPIQKDLYEDVMLETYQNLVSVGLSCRRPSVITLLEKGKAPWTVEPARQRRGPDSGAKC
B3: DOMAIN_20147 (protein, listed as Odocoileus virginianus)
chain: SKAPVTFGDLAIYFSQEEWEWLSPIQKDLYEDVMLENYQNLVSLGLCFRRPNVITLLEKGKAPWMVDPVKRRRGLDLGSKG
B4: DOMAIN_20455 (protein)
chain: MEGLVMFQDLSIDFSQEEWECLDAAQKDLYRDVMMENYSSLVSLGLSTPKPDVISLLEQGKEPWMVSRDVLGGWCPDRLKK
modifications: Nomascus leucogenys
B5: DOMAIN_20524 (protein)
chain: PQKSVTFEDVAVYFTQAEWDGLSPAQRTLYRDVMLENYGNVASLGFPLLKPAVISQLEGGGDLGGPSPLAAGTGLQGLRTV
modifications: Nomascus leucogenys
B6: DOMAIN_20171 (protein, listed as Trichechus manatus)
chain: ARESVVFSDVSIAFSQEEWAHLDLEQKDLYRDVMLENYSNLVSLAGCFVSKPDVISLLEQGKEPWKIVRKGRRRYPDLETR
B7: DOMAIN_20371 (protein)
chain: WKELLSFEDVAMYFTREEWNRLDWAQKDLYRDVMLENYRNMILLGFQFPKPEVICLLEQWEEPWILDLPRAGTRKASSSAC
modifications: Ursus arctos
B8: DOMAIN_20352 (protein)
chain: AQETVTFKDVAVDFTQEEWGQLDPVQRTLYRDVMLETYGHLLSVGNQIAKPEVISLLEQGEEPWSMERVYPPQRTCPEWMR
modifications: Vicugna pacos
B9: DOMAIN_20287 (protein)
chain: LKGLVTFEDVAVEFTQEEWALLDPAQRTLYRDVMLENFRNLASLGDQVDKPGLIAQLEQEDKVMTEERGILPGTCPDVENP
modifications: Cercocebus atys
B10: DOMAIN_20115 (protein, listed as Physeter macrocephalus)
chain: HQEVVTFEDVAVYFTQTEWAGLSPAQRALYRSVMLEIYGNLTSLGYPVPKPALVSLLERGELPWGLETRDDPPAQGTKDIC
B11: DOMAIN_20134 (protein, listed as Acinonyx jubatus)
chain: FQDFVSFNDVSVNFTEEEWRELDPVQRVLYRDVMLENYRNLVSLGFPFSKPDIISQLEQAVNPWMQEGEVLRGSCTHLETR
B12: DOMAIN_20208 (protein, listed as Pteropus vampyrus)
chain: SQEPVSFLDVAVDFTQEEWQQLDPVQRTTYRDVMLENYSHLVALGYDSAKPNVIVKLEQGEEPWVAEGDLPCRSRPEEVWQ
B13: DOMAIN_20469 (protein, listed as Equus caballus)
chain: PPSLVTFGDVAIDFSQEEWEWLNSAQRTLYRNVMLENYRNLASLGLCGSKPDMISSLEQRREPWITKRKLTRGRCPDLKAV
B14: DOMAIN_20095 (protein, listed as Phascolarctos cinereus)
chain: FQVSVTFQDVAVDFSRDEWKRLDDAQKALYRDVMLENYENLVSLGLPVSKLDVISLLERREAPRRAKERVPRDLPPDSISQ
B15: DOMAIN_20089 (protein, listed as Panthera pardus)
chain: PQEPVTFEDVAVLFTPEEWMFLDSAQRSLYRDVMLENYRNVASVGDQLGKFSSFSHLEQGEEWWPTERRVFPGSCPEPSLP
B16: DOMAIN_20250 (protein, listed as Phascolarctos cinereus)
chain: PQELVTFEDVAVYLSKEEWGLLDPAQRRLYRDVMLENYGNVASLGLPVSKPDLISQLERTDLPLVPRLPQTEIEDLFDEKL
B17: DOMAIN_20332 (protein, listed as Callithrix jacchus)
chain: EQEPVTFKDVAVDFTQEEWGQLDLVQRTLYRDVMLETYGHLLSVGNQTAKPEVISLLEQGEEPWSVEQTCPQRACPEWMRN
B18: DOMAIN_313 (protein, listed as Pan paniscus)
chain: MGPLTIRDVTVEFSLEEWHCLDTAQQNLYRDVMLENYRNLVFLGIAVSKPDLITCLEQGKEPCNMKRHEMVAKPPVMCSHI
B19: DOMAIN_20487 (protein, listed as Mandrillus leucophaeus)
chain: EKGPLTFRDVVIEFSQEEWQCLDTAQQDLYRKVMLENFRNLVFLGIDVSKPDLITCLEQGKNPWNMKRHSMVATPPGVFFV
B20: DOMAIN_20462 (protein, listed as Trichechus manatus)
chain: FQESVVFSDVSIAFSQEEWAHLDLEQKDLYRDVMLENYSNLVSLGCFVSKPDVISLLEQGKEPWKIVRKGRRRYPDLETRY
B21: DOMAIN_20345 (protein)
chain: MVSFEDVAVLLSQEEWDCLIPAQRGLYRDVMLETYGNLVSLGLQASKPDVISRLEQGDEPWTTHTLRTQGSWSWRHKREGY
modifications: Cebus imitator
B22: DOMAIN_20318 (protein, listed as Callithrix jacchus)
chain: KPGAVSFADVAVYFSPEEWGCLRPAQRALYRDVMRETYGHLGALGFPGPKPALISWMEQESEAWSSAAQDPENGESLGGAR
B23: DOMAIN_20381 (protein, listed as Saimiri boliviensis)
chain: ALRSVMFSDISIDFSPEEWEYLDLEQKNLYRDVMLENYSNLVSLGCFISKPVVISLLEQGKEPWKVVRKRRQYPDLETKYE
B24: DOMAIN_20249 (protein)
chain: SQHLVTFEDVAVNFTQEEWTLLDQTQRDLYRDVMLENYQNLMALAGSESCKPHVNSPLEGAEELRTRARRILQSEFMAESD
modifications: Vicugna pacos
B25: DOMAIN_20436 (protein, listed as Sus scrofa)
chain: LVFEDVAINFTPEEWALLDPAQRRLYRDVMLETFKNLAFVGSCLHVKTSGSSAQRDILENVLCSEEKIVRFKRNDSKSVLG
B26: DOMAIN_20537 (protein, listed as Chlorocebus sabaeus)
chain: KPGTVSFADVAVYFSREEWGCLRPAQRALYRDVMRETYGHLGALGVGGSKPALISWVEEAAELWDPAARDPEVTKCPTETD
B27: DOMAIN_302 (protein, listed as Pan paniscus)
chain: MGPLTFTDVAIEFSLEEWQCLDTAQQNLYRNVMLENYRNLVFLGIAVSKPDLITCLEKEKEPCKMKRHEMVDEPPDGVSLL

Tested on: HBEGF locus
Format: cell-based, human
Details: high-throughput screen of dXR repression of the HBEGF gene
[1] = abundance of each domain in the library before vs after diphtheria toxin selection, listed domains met p-value <0.01 and log2(fold change) >2
[2] = change in abundance of each domain in the library before and after diphtheria toxin selection

| Molecule | Log2 (fold change) [1] | Log2 (fold change) [2] |
| --- | --- | --- |
| B1 | 3.1266 |  |
| B2 | 3.9594 |  |
| B3 | 3.7467 |  |
| B4 | 3.112 |  |
| B5 | 3.2893 |  |
| B6 | 3.951 |  |
| B7 | 2.8418 |  |
| B8 | 2.9839 |  |
| B9 | 3.4486 |  |
| B10 | 3.1154 |  |
| B11 | 3.2457 |  |
| B12 | 2.4805 |  |
| B13 | 2.7506 |  |
| B14 | 3.7141 |  |
| B15 | 4.2275 |  |
| B16 | 3.5525 |  |
| B17 | 3.2855 |  |
| B18 |  | 2.4558 |
| B19 | 2.8325 |  |
| B20 | 5.4429 |  |
| B21 | 3.8132 |  |
| B22 | 3.5311 |  |
| B23 | 2.0412 |  |
| B24 | 2.7041 |  |
| B25 | 2.724 |  |
| B26 | 3.2762 |  |
| B27 |  | 2.5092 |

Like-named read-outs stand apart in the source and are kept apart here.
